# Some of the results follow.
# B1: CFEM-PPl (Pichia pastoris), F2QPV1 (protein)
# chain: AVATPPACLLACAAEVVKESSDCDALNNIQCICENEGSAIHACLESTCPDGLSSTALQSFEDVCESVGTEANLDE
# Columns and labels:
# Experiment in all cases: glycan array binding signal (z-score within array); higher = stronger binding
# Details in all cases: glycan notation: IUPAC condensed, linker removed
# [1] = target: Fuc(a1-2)[Gal(a1-3)]Gal(b1-4)GlcNAc(b1-2)Man(a1-3)[Fuc(a1-2)[Gal(a1-3)]Gal(b1-4)GlcNAc(b1-2)Man(a1-6)]Man(b1-4)GlcNAc(b1-4)GlcNAc
# In short: (§1)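 The binding signal is a Z-score computed within each array. Data were drawn from 3228 arrays in the Consortium for Functional Glycomics database, restricted to those with a known protein sequence. Scores were averaged over arrays of the same protein sequence at different concentrations or buffers, and over linkers, and negative values can be taken as non-binding.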
# [2] = target: Fuc(a1-2)[Gal(a1-3)]Gal(b1-4)GlcNAc(b1-2)Man(a1-3)[Fuc(a1-2)[Gal(a1-3)]Gal(b1-4)GlcNAc(b1-2)Man(a1-6)]Man(b1-4)GlcNAc(b1-4)[Fuc(a1-6)]GlcNAc
# In short: as §1
# [3] = target: Fuc(a1-2)[Gal(a1-3)]Gal(b1-4)GlcNAc(b1-3)GalNAc
# In short: as §1
# [4] = target: Fuc(a1-2)[Gal(a1-3)]Gal(b1-4)GlcNAc(b1-3)[Fuc(a1-2)[Gal(a1-3)]Gal(b1-4)GlcNAc(b1-6)]GalNAc
# In short: as §1
# [5] = target: Fuc(a1-2)[Gal(a1-3)]Gal(b1-4)GlcNAc(b1-6)GalNAc
# In short: as §1
# [6] = target: Fuc(a1-2)[Gal(a1-3)]Gal(b1-4)[Fuc(a1-3)]Glc
# In short: as §1
# [7] = target: Fuc(a1-2)[Gal(a1-3)]Gal(b1-4)[Fuc(a1-3)]GlcNAc
# In short: as §1
# [8] = target: Fuc(a1-2)[Gal(a1-3)]Gal(b1-4)[Fuc(a1-3)]GlcNAc(b1-3)GalNAc
# In short: as §1
# [9] = target: Fuc(a1-2)[Gal(a1-4)]Gal(b1-4)GlcNAc
# In short: as §1
# [10] = target: Fuc(a1-2)[GalNAc(a1-3)]Gal
# In short: as §1
# [11] = target: Fuc(a1-2)[GalNAc(a1-3)]Gal(b1-3)GalNAc(a1-3)[Fuc(a1-2)]Gal(b1-4)GlcNAc
# In short: as §1
# [12] = target: Fuc(a1-2)[GalNAc(a1-3)]Gal(b1-3)GalNAc(b1-3)Gal(a1-4)Gal(b1-4)Glc
# In short: as §1
# [13] = target: Fuc(a1-2)[GalNAc(a1-3)]Gal(b1-3)GlcNAc
# In short: as §1
# [14] = target: Fuc(a1-2)[GalNAc(a1-3)]Gal(b1-3)GlcNAc(b1-2)Man(a1-3)[Fuc(a1-2)[GalNAc(a1-3)]Gal(b1-3)GlcNAc(b1-2)Man(a1-6)]Man(b1-4)GlcNAc(b1-4)GlcNAc
# In short: as §1
# [15] = target: Fuc(a1-2)[GalNAc(a1-3)]Gal(b1-3)GlcNAc(b1-2)Man(a1-3)[Fuc(a1-2)[GalNAc(a1-3)]Gal(b1-3)GlcNAc(b1-2)Man(a1-6)]Man(b1-4)GlcNAc(b1-4)[Fuc(a1-6)]GlcNAc
# In short: as §1
# [16] = target: Fuc(a1-2)[GalNAc(a1-3)]Gal(b1-3)GlcNAc(b1-3)GalNAc
# In short: as §1
# [17] = target: Fuc(a1-2)[GalNAc(a1-3)]Gal(b1-3)GlcNAc(b1-6)GalNAc
# In short: as §1
# [18] = target: Fuc(a1-2)[GalNAc(a1-3)]Gal(b1-4)Glc
# In short: as §1
# [19] = target: Fuc(a1-2)[GalNAc(a1-3)]Gal(b1-4)GlcNAc
# In short: as §1
# [20] = target: Fuc(a1-2)[GalNAc(a1-3)]Gal(b1-4)GlcNAc(b1-2)Man
# In short: as §1
# [21] = target: Fuc(a1-2)[GalNAc(a1-3)]Gal(b1-4)GlcNAc(b1-2)Man(a1-3)[Fuc(a1-2)[GalNAc(a1-3)]Gal(b1-4)GlcNAc(b1-2)Man(a1-6)]Man(b1-4)GlcNAc(b1-4)GlcNAc
# In short: as §1
# [22] = target: Fuc(a1-2)[GalNAc(a1-3)]Gal(b1-4)GlcNAc(b1-2)Man(a1-3)[Fuc(a1-2)[GalNAc(a1-3)]Gal(b1-4)GlcNAc(b1-2)Man(a1-6)]Man(b1-4)GlcNAc(b1-4)[Fuc(a1-6)]GlcNAc
# In short: as §1
# [23] = target: Fuc(a1-2)[GalNAc(a1-3)]Gal(b1-4)GlcNAc(b1-3)Gal(b1-4)GlcNAc
# In short: as §1
# [24] = target: Fuc(a1-2)[GalNAc(a1-3)]Gal(b1-4)GlcNAc(b1-3)Gal(b1-4)GlcNAc(b1-3)Gal(b1-4)GlcNAc
# In short: as §1
# [25] = target: Fuc(a1-2)[GalNAc(a1-3)]Gal(b1-4)GlcNAc(b1-3)GalNAc
# In short: as §1
# [26] = target: Fuc(a1-2)[GalNAc(a1-3)]Gal(b1-4)GlcNAc(b1-3)[Fuc(a1-2)[GalNAc(a1-3)]Gal(b1-4)GlcNAc(b1-6)]GalNAc
# In short: as §1
# [27] = target: Fuc(a1-2)[GalNAc(a1-3)]Gal(b1-4)GlcNAc(b1-6)GalNAc
# In short: as §1
# [28] = target: Fuc(a1-2)[GalNAc(a1-3)]Gal(b1-4)[Fuc(a1-3)]GlcNAc
# In short: as §1
# [29] = target: Fuc(a1-2)[GalNAc(a1-3)]Gal(b1-4)[Fuc(a1-3)]GlcNAc(b1-3)GalNAc
# In short: as §1
# [30] = target: Fuc(a1-2)[GalNAc(a1-4)]Gal(b1-4)GlcNAc
# In short: as §1
# [31] = target: Fuc(a1-2)[GalNAc(b1-3)]Gal
# In short: as §1
# Fuc(a1-3)GlcNAc = target: Fuc(a1-3)GlcNAc
# In short: as §1
# [32] = target: Fuc(a1-3)[Gal(b1-4)]Glc6S
# In short: as §1
# [33] = target: Fuc(a1-3)[Gal(b1-4)]GlcNAc
# In short: as §1
# [34] = target: Fuc(a1-3)[Gal(b1-4)]GlcNAc(b1-2)Man
# In short: as §1
# [35] = target: Fuc(a1-3)[Gal(b1-4)]GlcNAc(b1-2)Man(a1-3)[Fuc(a1-3)[Gal(b1-4)]GlcNAc(b1-2)Man(a1-6)]Man(b1-4)GlcNAc(b1-4)GlcNAc
# In short: as §1
# [36] = target: Fuc(a1-3)[Gal(b1-4)]GlcNAc(b1-2)Man(a1-3)[Fuc(a1-3)[Gal(b1-4)]GlcNAc(b1-2)Man(a1-6)]Man(b1-4)GlcNAc(b1-4)[Fuc(a1-6)]GlcNAc
# In short: as §1
# [37] = target: Fuc(a1-3)[Gal(b1-4)]GlcNAc(b1-3)Gal(b1-3)[Fuc(a1-4)]GlcNAc
# In short: as §1
# [38] = target: Fuc(a1-3)[Gal(b1-4)]GlcNAc(b1-3)Gal(b1-4)[Fuc(a1-3)]GlcNAc
# In short: as §1
# [39] = target: Fuc(a1-3)[Gal(b1-4)]GlcNAc(b1-3)Gal(b1-4)[Fuc(a1-3)]GlcNAc(b1-3)Gal(b1-4)[Fuc(a1-3)]GlcNAc
# In short: as §1
# [40] = target: Fuc(a1-3)[Gal(b1-4)]GlcNAc(b1-3)GalNAc
# In short: as §1
# [41] = target: Fuc(a1-3)[Gal(b1-4)]GlcNAc(b1-6)GalNAc
# In short: as §1
# [42] = target: Fuc(a1-3)[Gal(b1-4)]GlcNAc(b1-6)[Gal(b1-3)GlcNAc(b1-3)]Gal(b1-4)Glc
# In short: as §1
# [43] = target: Fuc(a1-3)[Gal(b1-4)]GlcNAc6S
# In short: as §1
# [44] = target: Fuc(a1-3)[Gal3S(b1-4)]Glc
# In short: as §1
binder,measurement,setting,value
B1,glycan array binding signal (z-score),[1],-0.252
same,glycan array binding signal (z-score),[2],-0.291
same,glycan array binding signal (z-score),[3],-0.044
same,glycan array binding signal (z-score),[4],-0.125
same,glycan array binding signal (z-score),[5],-0.255
same,glycan array binding signal (z-score),[6],-0.319
same,glycan array binding signal (z-score),[7],-0.197
same,glycan array binding signal (z-score),[8],-0.033
same,glycan array binding signal (z-score),[9],-0.168
same,glycan array binding signal (z-score),[10],-0.197
same,glycan array binding signal (z-score),[11],-0.357
same,glycan array binding signal (z-score),[12],-0.315
same,glycan array binding signal (z-score),[13],-0.157
same,glycan array binding signal (z-score),[14],-0.271
same,glycan array binding signal (z-score),[15],-0.118
same,glycan array binding signal (z-score),[16],0.166
same,glycan array binding signal (z-score),[17],-0.149
same,glycan array binding signal (z-score),[18],0.007
same,glycan array binding signal (z-score),[19],-0.284
same,glycan array binding signal (z-score),[20],-0.243
same,glycan array binding signal (z-score),[21],-0.126
same,glycan array binding signal (z-score),[22],-0.244
same,glycan array binding signal (z-score),[23],-0.348
same,glycan array binding signal (z-score),[24],-0.375
same,glycan array binding signal (z-score),[25],-0.294
same,glycan array binding signal (z-score),[26],-0.015
same,glycan array binding signal (z-score),[27],-0.249
same,glycan array binding signal (z-score),[28],0.057
same,glycan array binding signal (z-score),[29],2.17
same,glycan array binding signal (z-score),[30],-0.315
same,glycan array binding signal (z-score),[31],-0.218
same,glycan array binding signal (z-score),Fuc(a1-3)GlcNAc,-0.212
same,glycan array binding signal (z-score),[32],-0.098
same,glycan array binding signal (z-score),[33],-0.275
same,glycan array binding signal (z-score),[34],-0.19
same,glycan array binding signal (z-score),[35],-0.205
same,glycan array binding signal (z-score),[36],-0.04
same,glycan array binding signal (z-score),[37],-0.336
same,glycan array binding signal (z-score),[38],-0.128
same,glycan array binding signal (z-score),[39],-0.146
same,glycan array binding signal (z-score),[40],-0.069
same,glycan array binding signal (z-score),[41],0.273
same,glycan array binding signal (z-score),[42],-0.103
same,glycan array binding signal (z-score),[43],-0.161
same,glycan array binding signal (z-score),[44],-0.058

# — the supplement of paper PMC8728848
